# Measurements taken from US11559536B2, “Compositions and methods for the treatment of inflammation in urological pathology” (Duke University, priority 2019, dated 2023).
# Like-named read-outs stand apart in the source and are kept apart here.
# Experiments:
# Format in all cases: in vivo, rat
# CP-induced cystitis [1] = assay: Bladder weight in CP-induced cystitis; settings: 24 h after CP 150 mg/kg i.p.; GLY 2.5 mg/kg p.o.; Mesna 40 mg/kg
# Protocol: (§1) Not all treatments groups were used for all end points. Basically, animals were injected i.p. with a single dose of CP (150 mg/kg) or PBS as a control and 24 hr later end point analysis began. However, depending on the experiment, rats were also pretreated/treated with various inhibitors to assess the role of various pathways. To assess a role for NLRP3, rats were given the NLRP3 inhibitor glyburide (Lamkanfi et al. (2009) The Journal of cell biology 187: 61-70) (GLY; 2.5 mg/kg in 10% ethanol in PBS, ≈800 μl/rat, p.o., (Hughes et al. (2014) American journal of physiology Renal physiology 306: F299-308) or vehicle as the control. GLY was given in the evening prior to CP administration (5 PM) and again 16 h later (9 AM). Four h later (1 PM), CP or PBS alone was injected (i.p). Additional doses of GLY were given 4 h (5 PM) and 20 h (9 AM) after CP injection. 24 h after CP injection animals were sacrificed or entered into the Evans blue protocol or behavior assays.
# Bladder weights were recorded at the time of euthanasia.
# CP-induced cystitis [2] = assay: Evans blue dye extravasation in the bladder, CP-induced cystitis
# CP-induced cystitis [3] = assay: Histology and IbA1/AIF1 quantitation of activated microglia in fascia dentata, CP-induced cystitis; settings: for density of activated microglia (IbA1/AIF1) in the fascia dentata: CP-treated rats with or without GLY or Mesna; for cells with morphology of activated microglia in the hippocampus (H&E): fascia dentata, CP-treated rats with or without GLY
# Protocol: as §1
# Whole brains were immersed in 10% neutral buffered formalin (RT, 48 h), sliced coronally and embedded in paraffin blocks with the cut hippocampal plane on the block face. Sections (10 μm) were then cut and stained with hematoxylin and eosin using routine methods. Sections were visualized using Olympus Vanox BH-2 microscope and analyzed by a board-certified pathologist (WTH) for evidence of inflammation and changes in microglia.
# Coronal sections (10 μm) of the hippocampus were stained with anti-IbA1/AIF1 (1:500) (catalog NBP2-19019; Novus Biologicals, Centennial, Colo.) using standard methods and citrate antigen retrieval. HRP development was accomplished with the Vectastain ABC Staining Kit (Vector Laboratories, Burlingame, Calif.) using a secondary antibody provided. All sections were imaged on a Zeiss Axio Imager 2 microscope (Zeiss, Oberkochen, Germany) running Zen software (Zeiss), using the tiling and stitching feature to ensure the entire fascia dentata was visualized. Images were imported into NIS-Elements software (Nikon Co., Tokyo, Japan). One hemisphere was chosen and 600,000-700,000 μm^2 of the fascia dentata was demarcated as the region of interest (ROI). The number of microglia within this region was then counted. Microglia cells were defined as black/brown spots with two or greater associated tendrils and the number present in the ROI was counted. Microglial density was then calculated.
# CP-induced cystitis [4] = test system: CP-induced cystitis
# CP-induced cystitis [5] = assay: Forced swim assay, CP-induced cystitis; settings: 48 h after CP; fluoxetine 5 mg/kg
# Protocol: Not all treatments groups were used for all end points. Basically, animals were injected i.p. with a single dose of CP (150 mg/kg) or PBS as a control and 24 hr later end point analysis began. However, depending on the experiment, rats were also pretreated/treated with various inhibitors to assess the role of various pathways.
# Rats were left in this cylinder for a 10 min training period. 24 h later (48 h after CP), rats were then placed back in the cylinder and recorded for 5 min (Logitech Webcam; Silicon Valley, Calif.). The recordings were quantified for time spent immobile by several blinded individuals and the average score used in each individual measurement. Immobility was defined as absence of movement except for those necessary for keeping the nose above water.
# [6] = 24 h after CP 150 mg/kg i.p., GLY 2.5 mg/kg p.o., Mesna 40 mg/kg
# [7] = started 24 h after CP, fluoxetine 5 mg/kg
SMILES,bladder weight (CP-induced cystitis [1]),bladder inflammation (Evans blue extravasation) (CP-induced cystitis [2]; [6]),density of activated microglia (IbA1/AIF1) in the fascia dentata (CP-induced cystitis [3]),cells with morphology of activated microglia in the hippocampus (H&E) (CP-induced cystitis [3]),sucrose preference (percentage of sucrose-laden water consumed) (CP-induced cystitis [4]; [7]),time spent immobile in forced swim assay (CP-induced cystitis [5]),"bladder inflammation (Evans blue extravasation) (CP-induced cystitis [2]; rat, in vivo)","sucrose preference (percentage of sucrose-laden water consumed) (CP-induced cystitis [4]; rat, in vivo)"
"COc1ccc(Cl)cc1C(=O)NCCc1ccc(S(=O)(=O)NC(=O)NC2CCCCC2)cc1 [GLY, glyburide]",reduced,reduced,blocked to levels not significantly different from controls,not present,prevented,prevented,,
"O=S(=O)([O-])CCS.[Na+] [Mesna, 2-mercaptoethane sulfonate sodium]",blocked the changes in both endpoints to levels not significantly different from vehicle-treated controls,blocked the changes in both endpoints to levels not significantly different from vehicle-treated controls,blocked to levels not significantly different from controls,,prevented,prevented,,
CNCCC(Oc1ccc(C(F)(F)F)cc1)c1ccccc1 (stereo not shown) [fluoxetine],,,,,prevented,prevented,,
"O=P1(N(CCCl)CCCl)NCCCO1 (stereo not shown) [CP, cyclophosphamide]",significantly increased,,significantly increased density of microglia,present,,significantly more time immobile,significant increase in inflammation,significantly lower percentage of sucrose-laden water
